{"source": "PubChem BioAssay AID1794842", "about": "(National Center for Advancing Translational Sciences (NCATS), 2023)", "note": "Fewer than 10 of roughly 2,800 compounds were called active. Calls come from the whole dose curve; as a rule, active = well fitted curve in the direction sought with a large enough effect; inconclusive = small, poorly fitted or top-dose-only effect, or another doubt; inactive = no such curve, though single readings can be large or run the other way. This is one part of the list."}
{"target": "Metallo-beta-lactamase type 2 (Klebsiella pneumoniae) (UniProt C7C422)", "sequence (C7C422 whole entry, looked up)": "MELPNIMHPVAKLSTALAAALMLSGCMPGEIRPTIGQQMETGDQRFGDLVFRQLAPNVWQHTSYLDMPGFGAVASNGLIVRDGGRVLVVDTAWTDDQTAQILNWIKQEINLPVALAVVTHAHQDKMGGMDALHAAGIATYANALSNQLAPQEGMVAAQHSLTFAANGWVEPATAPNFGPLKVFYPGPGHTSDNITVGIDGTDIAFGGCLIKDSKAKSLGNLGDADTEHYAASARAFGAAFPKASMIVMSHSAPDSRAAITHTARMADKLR", "assay": "qHTS to identify inhibitors of the New Delhi Metallo-beta-lactamase (NDM): Meropenem screen against the machine-based learning selections; note: % of control where 0% means no effect.", "settings": "Purified NDM-1, meropenem hydrolysis, absorbance 300 nm; at 57.5 µM (top of the series) unless noted", "excerpt": "Assay Submitter (PI): James Inglese Ph.D., Patricia Dranchak Ph.D., Mahesh Aitha Ph.D. Assay Development and Screening Technology Laboratory (ADST) National Center for Advancing Translational Sciences (NCATS), Rockville, MD National Institute of Health (NIH), Bethesda, Maryland The metallo-beta-lactamases (MBL) are a main antibiotic resistance mechanism evolved by bacteria. There is an urgent clinical need for MBL inhibitors to mitigate this growing threat. To support a machine-based learning study, qHTS has been used to experimentally test inhibitors identified by prediction tools.\nPROTOCOL TABLE (as described by Inglese et al., 2007) SEQUENCE No. (e.g., 1, 2, 3, etc.); […] (e.g., enzyme, Incubation, Reagent, etc.); VALUE; DESCRIPTION Primary Screen 1; NDM-1; 4 uL of 3 nM enzyme [2 nM final] in 50 mM HEPES (pH 7.0), 1 uM […], 0.01% Tween20; Use BioRaptr to dispense into two sets of Aurora black, clear bottom high base 1536-well plates 2; Compounds; 23 nL; Use Pin Tool (Wako) to transfer DMSO control and library compounds in DMSO 3; Incubate; >30 min 4a; Reagent; 2 uL of 50 uM nitrocefin [16.7 uM final] to one set of assay plates 4b; Reagent; 2 uL of 150 uM meropenem [50 uM final] to second set of assay plates 5a; Incubate; 15 min 5b; Incubate; 30 min 6a; Detector; Absorbance at 485 nm (bandwidth = 5 nm, 25 flashes/well) on Tecan Infinity 6b; Detector; Absorbance at 300 nm (bandwidth = 5 nm, 25 flashes/well) on Tecan Infinity NOTES (numbers refer to sequence above) 1; Column 1 of each plate received assay buffer without enzyme and columns 2-48 received enzyme for a final assay concentration of 2 nM. 2; Control plate contained DMSO in columns 1, 2, 3, and 4. 3; Compound interaction with enzyme. 4; Nitrocefin and meropenem substrates were prepared in the same assay buffer as step 1 for a final assay concentration of 16.7 uM and 50 uM, respectively, and added to all wells across respective sets of assay plates. 5; Default reader settings were applied for absorbance read at 485 nm (nitrocefin) or 300 nm (meropenem), bandwidth = 5 nm, 25 flashes/well. References: Inglese J, Shamu CE, Guy RK. 2007. Reporting data from high-throughput screening of small-molecule libraries. Nat Chem Biol. doi:10.1038/nchembio0807-438 Yasgar A, Shinn P, Jadhav A, Auld D, Michael S, Zheng W, Austin CP, Inglese J, Simeonov A. 2008. Compound Management for Quantitative High-Throughput Screening. J Lab Autom 13:79 - 89. doi:10.1016/j.jala.2007.12.004"}
{"smiles": "Cn1cc(C(=O)N2CC[C@@](C)(O)[C@@H](O)C2)c2ccccc21", "activity change, negative = inhibition": "inactive: 6.14% [at 38.4 µM]"}
{"smiles": "C=C[C@H]1CN2CC[C@H]1C[C@@H]2CNC(=O)Nc1ccc(Oc2ccccc2)cc1", "activity change, negative = inhibition": "inactive: 2.19%"}
{"smiles": "COc1ccccc1-n1cc(C2=CCN(CCOCCO)CC2)cn1", "activity change, negative = inhibition": "inactive: 2.23% [at 38.4 µM]"}
{"smiles": "Cc1nc(-c2ccc(N(C)C)cc2)cc([C@H]2CN3CC[C@H]2C[C@@H]3COC(=O)NC(C)C)n1", "activity change, negative = inhibition": "inactive: 3.31% [at 38.4 µM]"}
{"smiles": "CC(C)(C)NC(=O)N1[C@H]2CC[C@@H]1c1cnc(-c3ccccc3)nc1C2", "activity change, negative = inhibition": "inactive: 5.5% [at 38.4 µM]"}
{"smiles": "COc1cc2c(cc1OCc1ccncc1)NC(=O)C21CCN(Cc2cccc(O)c2)CC1", "activity change, negative = inhibition": "inactive: -0.41% [at 38.4 µM]"}
{"smiles": "NC(=O)c1ccc(-c2cccc3c2CCNC3)s1", "activity change, negative = inhibition": "inactive: 0.564% [at 38.4 µM]"}
{"smiles": "CC(C)NC(=O)OC[C@H]1C[C@@H]2CCN1C[C@@H]2c1cc(C2CCCC2)nc(-c2ccncc2)n1", "activity change, negative = inhibition": "inactive: 8.98% [at 38.4 µM]"}
{"smiles": "CC(C)NC(=O)NC[C@H]1C[C@@H]2CCN1C[C@@H]2c1cc(C2CCCC2)nn1C", "activity change, negative = inhibition": "inactive: 1.42%"}
{"smiles": "CCC(CC)c1cc([C@H]2CN3CC[C@H]2C[C@@H]3CNC(=O)c2ccc(C)cc2)nc(-c2ccncc2)n1", "activity change, negative = inhibition": "inactive: 0.451% [at 38.4 µM]"}
{"smiles": "COCC1(CNC2CCN(C)CC2)C[C@@H](O)[C@@H](O)C1", "note": "(stereo not given in full)", "activity change, negative = inhibition": "inactive: 7.59% [at 76.7 µM]"}
{"smiles": "COCC(=O)NC[C@H]1C[C@@H]2CCN1C[C@@H]2CN1CCC(C)CC1", "activity change, negative = inhibition": "inactive: 0.281%"}
{"smiles": "Cc1ccc(C(=O)NC[C@H]2C[C@@H]3CCN2C[C@@H]3c2cc(-c3ccccc3)nn2C)cc1", "activity change, negative = inhibition": "inactive: -0.929%"}
{"smiles": "CCCS(=O)(=O)NC[C@H]1C[C@@H]2CCN1C[C@@H]2c1cc(-c2ccccc2Br)nc(C)n1", "activity change, negative = inhibition": "inactive: 2.22% [at 38.4 µM]"}
{"smiles": "CN(C)CC(=O)Nc1ccc2n(c1=O)C[C@H]1C[C@@H]2CN(C(=O)c2ccc(F)cc2)C1", "activity change, negative = inhibition": "inactive: 46.5%"}
{"smiles": "COCCNC(=O)[C@H]1CN2CCC1C[C@@H]2Cn1cc(-c2cccc(N)c2)nn1", "note": "(stereo not given in full)", "activity change, negative = inhibition": "inactive: 0.788%"}
{"smiles": "Cc1ccc2c(n1)N(C)[C@H](CO)CCN(CC(C)C)C2", "activity change, negative = inhibition": "inactive: 3.32% [at 76.7 µM]"}
{"smiles": "CN(C)Cc1cn(C[C@H]2C[C@@H]3CCN2C[C@@H]3C(=O)Nc2ccccc2)nn1", "activity change, negative = inhibition": "inactive: -1.5%"}
{"smiles": "CSc1ccc(-c2ccc(=O)n3c2[C@@H]2C[C@@H](CN(S(C)(=O)=O)C2)C3)cc1", "activity change, negative = inhibition": "inactive: 25.3%"}
{"smiles": "O=C(NC1CC1)[C@H]1CN2CCC1C[C@@H]2Cn1cc(CSc2ccccc2)nn1", "note": "(stereo not given in full)", "activity change, negative = inhibition": "inactive: 4.37%"}
